The supplement of paper PMC10126150
Values marked as one replicate rest on one cluster of the flow cell; about a third of the high ones do not repeat.
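Note: ATP exposure 15 min at 22 °C before imaging.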

These sequences were tested on ATP (assay: switch fluorescence ratio, 500 uM ATP over buffer (Cy3 cluster intensity, sum of 5 cycles each) (fold (ratio)); higher = stronger signal-on switching upon ATP binding; sequences stand for … in TCGTCGGCAGCGTCAGATGTGTATAAGAGACAGTTTTTTTTTTTTTTTTTTTTTTTTT…TC). Conditions: aptamer strand: ATP DNA aptamer (quencher-CACCTGGGGGAGTATTGCGGAGGAAGG + anchor), 100 nM annealed; ATP concentration: 500 uM; one replicate.
In short: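 After annealing to 100 nM quencher-labelled ATP aptamer, Cy3-labelled switching-strand clusters on a modified Illumina MiSeq flow-cell were imaged in selection buffer. A second image followed after 15 min with 500 uM ATP at 22 °C, and five such buffer/ATP cycles were done, each separated by NaOH stripping and re-annealing. The fluorescence ratio, averaged per switch-domain sequence, is summed target-cycle over summed buffer-cycle Cy3 intensity per cluster, with clusters outside 100-1000 RFU excluded.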
In the case of TCTCGTACCC, the switch fluorescence ratio is reported as 1.02.
TCTCGTTGCG was tested, and the switch fluorescence ratio was 1.
TCTCTAAAG was tested, and the switch fluorescence ratio was 1.
For TCTCTGAGCC, the switch fluorescence ratio was 1.03.
For TCTCTGTGGC, the switch fluorescence ratio was 1.17.
With TCTCTGTGTG the switch fluorescence ratio was 0.955.
In the case of TCTCTTTTTC, the switch fluorescence ratio is reported as 1.78.
TCTCTTTTTG gave a switch fluorescence ratio of 0.991.
In the case of TCTGAAAC, the switch fluorescence ratio is reported as 0.996.
TCTGAAACGA gave a switch fluorescence ratio of 0.923.
With TCTGAATAGG the switch fluorescence ratio was 0.988.
TCTGAGTT showed a switch fluorescence ratio of 0.98.
TCTGATTCCT gave a switch fluorescence ratio of 1.03.
Work on TCTGCACAGT yielded a switch fluorescence ratio of 0.97.
Sequence TCTGCATTGA has a switch fluorescence ratio of 1.07.
TCTGCCTGGT showed a switch fluorescence ratio of 1.03.
TCTGCGGGCA gave a switch fluorescence ratio of 1.18.
TCTGCTAACG showed a switch fluorescence ratio of 1.06.
For TCTGGGGTCT, the switch fluorescence ratio was 0.963.
TCTGGGTCCG was tested, and the switch fluorescence ratio was 1.04.
TCTGGTAAAT gave a switch fluorescence ratio of 1.02.
Sequence TCTGGTAAGA has a switch fluorescence ratio of 0.971.
With TCTGGTACTC the switch fluorescence ratio was 1.09.
TCTGGTAGAC gave a switch fluorescence ratio of 1.1.
Work on TCTGGTCAAC yielded a switch fluorescence ratio of 1.02.
In the case of TCTGGTCCG, the switch fluorescence ratio is reported as 1.04.
TCTGGTTAAC gave a switch fluorescence ratio of 0.991.
TCTGTAACTT was tested, and the switch fluorescence ratio was 1.02.
TCTGTAGGT gave a switch fluorescence ratio of 0.975.
Sequence TCTGTCAAGT has a switch fluorescence ratio of 0.967.
Sequence TCTGTCTAT has a switch fluorescence ratio of 0.978.
TCTGTGGCTT showed a switch fluorescence ratio of 0.983.
In the case of TCTGTGTTTG, the switch fluorescence ratio is reported as 0.959.
TCTGTTCCTT gave a switch fluorescence ratio of 1.
TCTGTTTGG gave a switch fluorescence ratio of 1.01.
For TCTTAAAGC, the switch fluorescence ratio was 1.02.
For TCTTACCTTT, the switch fluorescence ratio was 1.05.
TCTTAGACG was tested, and the switch fluorescence ratio was 0.892.
TCTTAGTATG gave a switch fluorescence ratio of 0.969.
For TCTTATAGCC, the switch fluorescence ratio was 0.986.
TCTTATCAAG gave a switch fluorescence ratio of 1.02.
TCTTATCTT gave a switch fluorescence ratio of 0.984.
For TCTTATGTTG, the switch fluorescence ratio was 0.987.
With TCTTATTTC the switch fluorescence ratio was 0.977.
Work on TCTTCAGCTT yielded a switch fluorescence ratio of 1.14.
TCTTCATATA was tested, and the switch fluorescence ratio was 0.992.
Sequence TCTTCATTTC has a switch fluorescence ratio of 0.983.
Sequence TCTTCGGTT has a switch fluorescence ratio of 1.03.
With TCTTCGTCAC the switch fluorescence ratio was 1.71.
TCTTCTAGAT was tested, and the switch fluorescence ratio was 1.01.
TCTTCTGATC showed a switch fluorescence ratio of 1.07.
TCTTCTTTTA gave a switch fluorescence ratio of 1.05.
With TCTTGCAGTA the switch fluorescence ratio was 1.09.
For TCTTGCGAGC, the switch fluorescence ratio was 0.977.
Work on TCTTGCTTTT yielded a switch fluorescence ratio of 1.04.
TCTTGGACCT gave a switch fluorescence ratio of 1.26.
For TCTTGGAGTG, the switch fluorescence ratio was 0.971.
TCTTGTATA was tested, and the switch fluorescence ratio was 0.977.
TCTTTAAGG showed a switch fluorescence ratio of 0.965.
TCTTTGAGAT showed a switch fluorescence ratio of 0.959.
For TCTTTGCGGA, the switch fluorescence ratio was 1.01.
TCTTTGTCTT was tested, and the switch fluorescence ratio was 1.02.
For TCTTTTTCAT, the switch fluorescence ratio was 0.974.
For TCTTTTTCG, the switch fluorescence ratio was 0.987.
Sequence TCTTTTTCGC has a switch fluorescence ratio of 0.98.
With TCTTTTTGCG the switch fluorescence ratio was 1.03.
In the case of TGAAAAATGC, the switch fluorescence ratio is reported as 1.35.
For TGAAAAGACT, the switch fluorescence ratio was 0.939.
With TGAAAATGCC the switch fluorescence ratio was 0.947.
Sequence TGAAACGGGC has a switch fluorescence ratio of 1.08.
In the case of TGAAATTCGC, the switch fluorescence ratio is reported as 1.
In the case of TGAACAATG, the switch fluorescence ratio is reported as 1.
Sequence TGAAGACATC has a switch fluorescence ratio of 1.02.
TGAAGCATC gave a switch fluorescence ratio of 1.29.
Sequence TGAAGCCGGT has a switch fluorescence ratio of 0.949.
For TGAAGGACAG, the switch fluorescence ratio was 1.07.
TGAAGGCTTC was tested, and the switch fluorescence ratio was 0.989.
TGAAGGGACT gave a switch fluorescence ratio of 1.01.
In the case of TGAAGTTCCG, the switch fluorescence ratio is reported as 1.04.
For TGAATAGTTT, the switch fluorescence ratio was 1.02.
For TGAATATCCT, the switch fluorescence ratio was 1.04.
In the case of TGAATCCACT, the switch fluorescence ratio is reported as 0.988.
Work on TGAATGATAT yielded a switch fluorescence ratio of 1.02.
Work on TGAATGCCCT yielded a switch fluorescence ratio of 0.935.
Sequence TGAATGCCTA has a switch fluorescence ratio of 0.952.
In the case of TGAATGGAGA, the switch fluorescence ratio is reported as 0.959.
Sequence TGAATGTACC has a switch fluorescence ratio of 1.04.
With TGACAAGAAA the switch fluorescence ratio was 1.08.
In the case of TGACAATGTA, the switch fluorescence ratio is reported as 1.02.
In the case of TGACACCAG, the switch fluorescence ratio is reported as 0.975.
For TGACACCAGG, the switch fluorescence ratio was 1.91.
Work on TGACACTTAC yielded a switch fluorescence ratio of 1.45.
With TGACACTTGT the switch fluorescence ratio was 0.985.
TGACATCGAT was tested, and the switch fluorescence ratio was 0.99.
TGACATGCCG was tested, and the switch fluorescence ratio was 0.996.
TGACATTATT was tested, and the switch fluorescence ratio was 0.965.
In the case of TGACCAAAAT, the switch fluorescence ratio is reported as 1.08.
TGACCACACT was tested, and the switch fluorescence ratio was 1.21.
With TGACCCATCA the switch fluorescence ratio was 1.06.
TGACCCCTT was tested, and the switch fluorescence ratio was 1.
With TGACGAAGAT the switch fluorescence ratio was 1.05.
Work on TGACGATGTG yielded a switch fluorescence ratio of 0.977.
For TGACGGAGTT, the switch fluorescence ratio was 1.05.
Sequence TGACGGCGGT has a switch fluorescence ratio of 1.09.
TGACGGGATA was tested, and the switch fluorescence ratio was 1.32.
Sequence TGACGGTATT has a switch fluorescence ratio of 1.09.
TGACGTTGAA gave a switch fluorescence ratio of 0.984.
TGACTAATTA gave a switch fluorescence ratio of 1.1.
TGACTCATAA showed a switch fluorescence ratio of 1.08.
TGACTGCGCA showed a switch fluorescence ratio of 1.24.
With TGACTGGCGA the switch fluorescence ratio was 1.23.
TGAGAACGCT gave a switch fluorescence ratio of 1.06.
Work on TGAGAAGAAG yielded a switch fluorescence ratio of 0.992.
TGAGACAGTT was tested, and the switch fluorescence ratio was 0.969.
TGAGACGCTT gave a switch fluorescence ratio of 1.03.
In the case of TGAGATACGT, the switch fluorescence ratio is reported as 0.968.
TGAGATGCAA was tested, and the switch fluorescence ratio was 1.05.
Sequence TGAGATTATA has a switch fluorescence ratio of 0.995.
TGAGCTAGTG was tested, and the switch fluorescence ratio was 0.985.
Work on TGAGCTGAGA yielded a switch fluorescence ratio of 0.98.
TGAGCTGGGA showed a switch fluorescence ratio of 0.981.
Sequence TGAGGACGTC has a switch fluorescence ratio of 1.03.
For TGAGGCACAT, the switch fluorescence ratio was 1.19.
TGAGGCATCC showed a switch fluorescence ratio of 1.03.
Sequence TGAGGCGGG has a switch fluorescence ratio of 1.02.
Sequence TGAGGCTTTT has a switch fluorescence ratio of 0.989.
TGAGGGAAAG showed a switch fluorescence ratio of 1.03.
TGAGGGAATC gave a switch fluorescence ratio of 1.
TGAGGGCTGG showed a switch fluorescence ratio of 1.01.
Sequence TGAGTAGGTT has a switch fluorescence ratio of 0.99.
TGAGTATGTG gave a switch fluorescence ratio of 1.07.
Sequence TGAGTCCGCT has a switch fluorescence ratio of 3.84.
Sequence TGAGTGCGCG has a switch fluorescence ratio of 1.02.
With TGAGTGCTAG the switch fluorescence ratio was 1.13.
With TGAGTGGAGT the switch fluorescence ratio was 0.962.
In the case of TGAGTTATGA, the switch fluorescence ratio is reported as 0.98.
Work on TGAGTTCGTG yielded a switch fluorescence ratio of 1.
Sequence TGAGTTGTGA has a switch fluorescence ratio of 0.995.
TGAGTTTTCT showed a switch fluorescence ratio of 0.988.
TGATAATCAT gave a switch fluorescence ratio of 1.01.
With TGATACTGTT the switch fluorescence ratio was 1.
TGATAGACTT gave a switch fluorescence ratio of 1.
Work on TGATAGAGGG yielded a switch fluorescence ratio of 0.937.
In the case of TGATAGCGAT, the switch fluorescence ratio is reported as 1.11.
TGATAGGG showed a switch fluorescence ratio of 0.989.
Work on TGATATCGGA yielded a switch fluorescence ratio of 1.04.
TGATCAACCG was tested, and the switch fluorescence ratio was 1.06.
TGATCAATCT showed a switch fluorescence ratio of 1.03.
In the case of TGATCCCGAG, the switch fluorescence ratio is reported as 0.999.
TGATCCTCG was tested, and the switch fluorescence ratio was 1.
In the case of TGATCGAACA, the switch fluorescence ratio is reported as 1.
Work on TGATCTGTA yielded a switch fluorescence ratio of 0.982.
TGATGATTAG gave a switch fluorescence ratio of 0.942.
TGATGCGCCC showed a switch fluorescence ratio of 0.994.
TGATGGCTGA was tested, and the switch fluorescence ratio was 1.01.
TGATGGGACA was tested, and the switch fluorescence ratio was 0.952.
Work on TGATGGGAGA yielded a switch fluorescence ratio of 0.979.
TGATGTAGCC showed a switch fluorescence ratio of 0.963.
TGATGTGAT showed a switch fluorescence ratio of 0.969.
TGATGTTAGG showed a switch fluorescence ratio of 0.947.
TGATGTTGGC gave a switch fluorescence ratio of 1.26.
Sequence TGATGTTTG has a switch fluorescence ratio of 1.02.
For TGATTACGAA, the switch fluorescence ratio was 1.05.
Sequence TGATTATTG has a switch fluorescence ratio of 0.988.
TGATTCACTC showed a switch fluorescence ratio of 0.981.
TGATTCACTT was tested, and the switch fluorescence ratio was 1.02.
TGATTCATCG was tested, and the switch fluorescence ratio was 1.01.
In the case of TGATTCCAAC, the switch fluorescence ratio is reported as 0.971.
For TGATTGCCT, the switch fluorescence ratio was 1.04.
With TGATTGGAC the switch fluorescence ratio was 1.04.
In the case of TGATTGTTA, the switch fluorescence ratio is reported as 0.964.
TGATTGTTTC was tested, and the switch fluorescence ratio was 0.985.
TGATTTTAAC showed a switch fluorescence ratio of 0.962.
Work on TGCAAAATAG yielded a switch fluorescence ratio of 0.972.
TGCAAAGTAG was tested, and the switch fluorescence ratio was 1.03.
With TGCAACATGC the switch fluorescence ratio was 1.05.
With TGCAACCTGG the switch fluorescence ratio was 1.02.
TGCAAGAAAG showed a switch fluorescence ratio of 1.06.
With TGCAAGACAT the switch fluorescence ratio was 1.16.
Sequence TGCAATTTCT has a switch fluorescence ratio of 1.12.
TGCACAATC was tested, and the switch fluorescence ratio was 1.14.
For TGCACTTCGG, the switch fluorescence ratio was 1.01.
TGCAGAGGGG gave a switch fluorescence ratio of 0.974.
Work on TGCAGCTACG yielded a switch fluorescence ratio of 0.963.
TGCAGTGTGA showed a switch fluorescence ratio of 1.
TGCAGTTTTA was tested, and the switch fluorescence ratio was 1.04.
Work on TGCATAAGTA yielded a switch fluorescence ratio of 1.01.
TGCATAAGTC was tested, and the switch fluorescence ratio was 1.03.
TGCATTATT gave a switch fluorescence ratio of 1.27.
For TGCATTGAGG, the switch fluorescence ratio was 1.02.
In the case of TGCATTGGAA, the switch fluorescence ratio is reported as 0.999.
TGCATTGGCT gave a switch fluorescence ratio of 1.
Sequence TGCCAACGTT has a switch fluorescence ratio of 0.997.
With TGCCAATAGT the switch fluorescence ratio was 1.1.
With TGCCACCGAT the switch fluorescence ratio was 1.04.
Work on TGCCAGAAGT yielded a switch fluorescence ratio of 0.985.
TGCCAGTCCC gave a switch fluorescence ratio of 1.07.
TGCCCAGGGC gave a switch fluorescence ratio of 1.02.
TGCCCATGGT was tested, and the switch fluorescence ratio was 1.11.
For TGCCCCGATC, the switch fluorescence ratio was 1.09.
For TGCCGGATAT, the switch fluorescence ratio was 1.04.
